The inhibition is the relative decrease from the control value, in per cent.

The structures appear in SMILES notation. Screen size: about 340,000 compounds; about 6,900 (2%) were called active. Cut-off read from the data, not from the text of the source: active = inhibition above about 30%; inactive = below that, where a call was filed. This is a selection; strong and weak results do not stand in their true shares. Where no call is shown, the source filed none.

UniProt P14416, sequence (P14416 whole entry, looked up): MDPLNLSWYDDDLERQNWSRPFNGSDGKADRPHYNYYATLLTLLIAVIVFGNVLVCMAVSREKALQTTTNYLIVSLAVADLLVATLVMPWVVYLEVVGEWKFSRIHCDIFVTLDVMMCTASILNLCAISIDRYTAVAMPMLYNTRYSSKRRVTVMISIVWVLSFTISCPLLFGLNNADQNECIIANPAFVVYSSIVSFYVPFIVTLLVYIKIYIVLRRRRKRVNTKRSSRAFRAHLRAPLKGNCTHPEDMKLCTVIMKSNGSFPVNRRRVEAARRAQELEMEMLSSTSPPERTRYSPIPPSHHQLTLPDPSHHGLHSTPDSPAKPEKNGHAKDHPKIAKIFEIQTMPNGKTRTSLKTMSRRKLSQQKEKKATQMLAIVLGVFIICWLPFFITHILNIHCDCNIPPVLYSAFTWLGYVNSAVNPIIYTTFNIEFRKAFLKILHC

The target of the assay is D(2) dopamine receptor (Homo sapiens) (UniProt P14416). In words: HTS Assay for Allosteric Antagonists of the Human D2 Dopamine Receptor: Primary Screen for Antagonists. Note: 0% is about no effect. To be noted: HEK293 TREx D2 cells, calcium flux, dopamine EC80; at 10 µM; stronger effect = higher value. The gist of the method:
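HEK293 T-REx D2 cells, tet-induced, calcium dye no-wash. Cpd pintool add, 180 s kinetic, then EC80 DA, 180 s kinetic. Ca flux read.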
Background: Calcium flux is commonly read through the fluorescence of an indicator in the cells.
As for `COc1ccc(Cn2c(SCc3ccc(C(=O)NCCc4ccccc4)cc3)nc3cccnc32)cc1`, the inhibition came to 20.6%.

`CCN(CC)c1nn2c(=O)c(C(=O)NCc3cccc(C)c3)cnc2s1`: the inhibition turned out to be 7.2%.

Turning to `Cn1nc(-c2ccccc2F)c2cc(C(=O)N3CCN(c4ccc(F)cc4)CC3)sc21`, the inhibition is -23.3%.

With `CCOC(=O)c1[nH]c(C)c(CCC(=O)NCc2ccccc2C)c1C`, the inhibition turned out to be 7.23%.

For `CCn1cc(S(=O)(=O)c2ccc(C)cc2)c(=O)c2cc(F)c(N3CCCCCC3)cc21`, the inhibition is 2.39%.

Regarding `Cc1ccc(NC(=O)CSc2ncnc3c2sc2ccccc23)cc1C`, the inhibition was -13.1%.

Turning to `CCCN1CCN(CCCNC(=O)Cn2c(-c3cccs3)cc3ccccc32)CC1`, the inhibition was -16.9%.

On to `CCC(C)NC(=O)Cn1c(=O)n(Cc2ccc(C(=O)NCc3ccccc3OC)cc2)c(=O)c2ccccc21` (stereo unspecified), for which the inhibition was 4.6%.

Regarding `Cc1nn(C(=O)c2cccc(F)c2)c(C)c1S(=O)(=O)N1CCCCCC1`, the inhibition came to 0.061%.

For the compound `Cn1cnc(S(=O)(=O)N2CCC(C(=O)N3CCN(c4cccc(C(F)(F)F)c4)CC3)CC2)c1`, the inhibition was 22%.

On to `O=C(Nc1c(C(=O)c2ccccc2)oc2ccccc12)c1cc(=O)c2ccccc2o1`, for which the inhibition is -16.9%.

In the case of `CCOC(=O)c1c(C)[nH]c(C)c1S(=O)(=O)NCC(=O)N(C)c1ccc(C)c(C)c1`, the inhibition turned out to be 2.19%.

Consider `COc1ccc(NC(=O)CSc2nc(-c3ccccc3)nc3cc(=O)[nH]n23)cc1`, for which the inhibition was -3.93%.

Consider `CC(C)(C)c1ccc(NC(=O)CSc2nnc3scc(-c4ccccc4)n23)cc1`, for which the inhibition was -4.6%.

Regarding `CCOC(=O)c1cnc2c(OC)cccc2c1Nc1cccc(O)c1`, the inhibition was 22.6%.

Regarding `CSc1ncc(C(=O)Nc2ccccc2C(=O)c2ccccc2)c(C)n1`, the inhibition was found to be 10%.

For the compound `Cc1nc2cccnc2n1-c1cccc(C(=O)NCCc2ccc(Cl)cc2)c1`, the inhibition turned out to be 3.78%.

Take `CCC(=O)N1CCCc2cc(S(=O)(=O)Nc3ccc(C)c(C)c3)ccc21`: the inhibition is 3.33%.

`COc1cc(CN2CCc3nc(N4CCN(c5ccccc5F)CC4)ncc3C2)ccc1OC(C)C`: the inhibition came out at 7.07%.

With `CCCCN(CC)C(=O)Cn1c(=O)n(-c2ccc(OCC)cc2)c(=O)c2c3c(sc21)CCCC3`, the inhibition was -23.5%.

As to `Cc1c(C(=O)Nc2ccc(Br)cc2F)sc2ncnc(N(C)C3CCCCC3)c12`, the inhibition was -16%.

In the case of `Cc1nc2c3ccccc3nc(NNC(=O)CCC(=O)N3CCN(c4ccccc4F)CC3)n2n1`, the inhibition is -14.2%.

Take `COc1cc(C2c3c(oc4ccc(C)cc4c3=O)C(=O)N2Cc2ccc(F)cc2)ccc1O` (stereo unspecified): the inhibition is -4.92%.

Consider `COc1ccc(C2Nc3ccccc3-c3nnc(SC)nc3O2)cc1C` (stereo unspecified), for which the inhibition is 1.3%.

Turning to `Cc1ccc(C(=O)Nc2ccccc2F)cc1S(=O)(=O)N1CCOCC1`, the inhibition was -4.13%.

In the case of `CCc1ccc(N(C(=O)CCC(=O)Nc2cc(C)on2)C(C(=O)NC2CCCC2)c2ccco2)cc1` (stereo unspecified), the inhibition is active: 33.5%.

Consider `Cc1ccc(NC(=O)CCC(=O)N2CCOc3ccccc32)c(Cl)c1`, for which the inhibition is 17.5%.

Take `CCn1c2ccc(F)cc2c2nnc(SCCN3CCCCC3)nc21`: the inhibition was 13.6%.

For `O=C(NCCCN1CCN(c2ccccc2F)CC1)C1CC(=O)N(C2CCCC2)C1` (stereo unspecified), the inhibition was active: 84.1%.

As for `Cc1cc(C)c2c(C)c(C(=O)N3CCC(c4nc5ccccc5s4)CC3)oc2c1`, the inhibition is -4.07%.

`O=C(CN(C(=O)c1csnn1)c1cccc(F)c1)NCc1ccc2c(c1)OCO2`: the inhibition is active: 42.3%.

For the compound `CCN(CC)C(=O)Cn1cc(SCC(=O)Nc2ccc(C)cc2)c2ccccc21`, the inhibition is -2.57%.

On to `COc1ccc(C)cc1NC(=O)C(NS(=O)(=O)c1cccc2nsnc12)c1ccccc1` (stereo unspecified), for which the inhibition was -5.71%.

For the compound `Cc1ccc(C)c(N2CCN(C(=O)Cn3nc(Cc4cccnc4)c4ccccc4c3=O)CC2)c1`, the inhibition was -8.66%.

As to `CCOC(=O)N1CCc2c(sc3c2c(=O)n(-c2ccc(Cl)cc2)c(=O)n3CC(=O)Nc2ccccc2)C1`, the inhibition was -11.5%.

Take `CC(=O)c1cccc(CN2CCN(Cc3ccc(C)cc3)C(CCO)C2)c1` (stereo unspecified): the inhibition was active: 54.6%.

Regarding `O=C(CSc1nnc(-c2ccccc2)o1)N1CCCc2ccccc21`, the inhibition was determined as 2.23%.

Consider `CCOc1ccccc1CNC(=O)c1cnc2sc(N3CCC(C)CC3)nn2c1=O`, for which the inhibition was 0.791%.

Regarding `CCc1ccc(-c2csc(-c3cc4cc(Br)ccc4oc3=O)n2)cc1`, the inhibition was -11.4%.

For `COc1ccc(C(=O)Nc2nnc(S(=O)(=O)N3CCOCC3)s2)cc1`, the inhibition turned out to be 25%.

As to `CCOC(=O)c1cc(OC(=O)c2ccc(OC)c(OC)c2)n(-c2ccccc2)n1`, the inhibition was determined as 8.39%.

As to `C[C@H](CS)C(=O)N1CCC[C@H]1C(=O)O`, the inhibition was active: 30%.

For `COC(=O)c1[nH]c2cc(OC)ccc2c1NC(=O)CCN1CCN(c2cccc(C)c2C)CC1`, the inhibition was active: 57.2%.

Regarding `COc1ccccc1CNC(=O)CCCn1c(=O)c2ccccc2n(Cc2ccccc2F)c1=O`, the inhibition is -1.39%.

Regarding `Cc1cccc(Cn2c(SCc3ccc(C(=O)NC4CCCCC4)cc3)nc3cccnc32)c1`, the inhibition is -1.39%.

As to `Cc1ccc(N2CC(C(=O)Nc3ccc(Cl)cc3Cl)CC2=O)cc1` (stereo unspecified), the inhibition was -10.3%.

Regarding `COc1ccccc1NC(=O)CCNS(=O)(=O)c1ccc2c(c1)CCCC(=O)N2`, the inhibition is -4.91%.

Consider `CCn1c(=O)cc(SCC(=O)N2CCN(c3cc(C)ccc3C)CC2)c2ccccc21`, for which the inhibition is -5.76%.

For the compound `CCOCN(C(=O)CSc1nc2ccccc2[nH]1)c1c(C)cccc1CC`, the inhibition is -21%.

As to `O=C(c1ccccc1)c1ccc2nc(Nc3ccccc3Cl)c3nncn3c2c1`, the inhibition came to 4.61%.

Consider `CCCCN(CC)C(=O)Cn1nc(C)c2c(C)n(-c3ccccc3)nc2c1=O`, for which the inhibition was -4.43%.

With `CCOC(=O)c1c(C)oc2nc(C)nc(NCc3cccc(OC)c3)c12`, the inhibition is -17.4%.

On to `CC1CC(C)CN(CCCNC(=O)CN2C(=O)CSc3ccc(S(=O)(=O)N4CCCCC4)cc32)C1` (stereo unspecified), for which the inhibition is active: 51.8%.

As to `COc1cc(NC(=O)CSC2=Nc3ccccc3N=C(c3ccc(F)cc3)C2)cc(OC)c1`, the inhibition is -24.2%.

For the compound `Brc1ccc(CN2CCN(c3ccccc3)CC2)o1`, the inhibition was active: 50.5%.

Turning to `COc1ccc(CNC(=O)c2cnc3cc(C)ccn3c2=O)cc1`, the inhibition is 3.42%.

In the case of `COc1ccc2nc(SCC(=O)N3CCNC3=O)[nH]c2c1`, the inhibition is active: 43.9%.

As for `CC(C)c1cnc2c(c1SCC(=O)NCc1ccccc1)c(=O)n(C)c(=O)n2C`, the inhibition stood at 0.32%.

For the compound `CN(Cc1ccccc1)C(=O)CSc1nc2ccccc2n1Cc1ccccc1F`, the inhibition was 14.6%.

With `Cc1ccccc1NC(=O)CSc1nc(=O)n(CCN2CCOCC2)c2c1CCC2`, the inhibition is -1.05%.

In the case of `Cc1sc2c(c1C)c(=O)n(-c1cccc(C(F)(F)F)c1)c(=O)n2Cc1ccc(F)cc1`, the inhibition stood at 6.3%.

Consider `COC(=O)c1ccc(NC(=O)CCc2c(C)nc3c(c2C)c(=O)n(C)c(=O)n3C)cc1`, for which the inhibition was 2.38%.

With `COc1ccccc1Cc1nc2ccccc2nc1SCC(=O)Nc1cccc(Cl)c1C`, the inhibition turned out to be 19.5%.

For `Cc1ccc(-c2nc3ccc(Cl)cn3c2Nc2ccccc2C)s1`, the inhibition stood at 2.13%.

For `C=CCc1ccccc1OCC(O)CN1CCN(c2ccccc2)CC1` (stereo unspecified), the inhibition came to 11.1%.

With `COc1ccccc1C(=O)Nc1ccc2c(c1)nc(CN1CCCCC1)n2C`, the inhibition is 4.03%.

With `Cc1cc(C)n2nc(SCC(=O)Nc3cccc(C(F)(F)F)c3)nc2n1`, the inhibition worked out at 3.36%.

For the compound `CCn1c(=O)n(CC)c2cc(N3CCCCC3)c(NC(=O)Nc3ccccc3C(F)(F)F)cc21`, the inhibition was 1.91%.

On to `COc1ccc(C(CC(=O)NCc2ccccc2)N2Cc3ccccc3C2=O)cc1` (stereo unspecified), for which the inhibition is 9.9%.

Take `CCC(Oc1ccc(F)cc1)C(=O)Nc1nc(-c2ccc(F)cc2)ns1` (stereo unspecified): the inhibition was -6%.

Regarding `CCc1ccccc1NC(=O)c1cnc2sc(N3CCOCC3)nn2c1=O`, the inhibition was 12%.

Consider `Cn1c(CCC(N)=O)nnc1SCC(=O)Nc1ccccc1C(=O)NC1CC1`, for which the inhibition was active: 31.4%.

Regarding `CCOC(=O)c1ccc(NC(=O)CC2C(=O)N(c3cccc(OC)c3)C(=O)N2Cc2ccc(OC)cc2)cc1` (stereo unspecified), the inhibition is -3.2%.

Consider `COc1ccc(OCC(O)CNC(=O)Nc2cc(C)cc(C)c2)cc1` (stereo unspecified), for which the inhibition was active: 30.1%.

As for `COc1ccccc1N1CCN(C(=O)CCNS(=O)(=O)c2ccc3c(c2)CCN3C(=O)C2CC2)CC1`, the inhibition is 7.07%.

As for `COc1ccc(Cl)cc1NC(=O)CSC1=Nc2ccccc2C2=NC(CC(=O)NCc3ccc4c(c3)OCO4)C(=O)N12` (stereo unspecified), the inhibition is -18.5%.

As to `Cc1ccc(NC(=O)c2cnc(SCC(=O)Nc3cc(C)on3)n(C)c2=O)cc1`, the inhibition is 21.2%.

On to `Cc1ccc(CNC(=O)Cn2cc(S(=O)(=O)Cc3ccccc3F)c3ccccc32)cc1`, for which the inhibition was found to be 4.1%.

Turning to `O=C(Cn1nnc(-c2ccc(Cl)cc2)n1)NCc1ccc(F)cc1`, the inhibition came out at 2.71%.

`COc1ccc(OC)c(CNS(=O)(=O)c2c(C(=O)N3CCCCCC3)c(C)n(C)c2C)c1`: the inhibition is 14.2%.

Consider `O=S(=O)(c1ccc(Br)cc1)c1nc(-c2cccs2)oc1SCc1ccccc1F`, for which the inhibition amounted to 8.46%.

With `COCCCNC(=O)c1cc(-c2cccnc2)nc2ccc(S(=O)(=O)N3CCC(C)CC3)cc12`, the inhibition was 1.97%.

In the case of `CN1C(=O)C2(c3ccccc31)N(c1cccc(F)c1)C(=O)CS2(=O)=O` (stereo unspecified), the inhibition was -9.07%.

On to `Clc1ccccc1CNc1nc2ccccc2c2nc(-c3cccnc3)nn12`, for which the inhibition was -2.08%.

Regarding `CCOC(=O)c1cc2c(=O)n3ccccc3nc2n(CC(C)C)c1=NC(=O)c1cc2ccccc2o1`, the inhibition was determined as 10.2%.

On to `Cc1ccc(S(=O)(=O)c2cn(Cc3ccc(F)cc3)c3cc(F)c(F)cc3c2=O)cc1`, for which the inhibition is -6.34%.

With `O=C(CN1C(=O)CC(c2ccccc2)Sc2ccccc21)Nc1cccc(Cl)c1` (stereo unspecified), the inhibition is -13.9%.

For the compound `CCOCCn1ccc2c(OCC(=O)Nc3ccc(OC(F)(F)F)cc3)cccc2c1=O`, the inhibition is -27%.

On to `CC(=O)c1cccc(NC(=O)CCS(=O)(=O)c2ccc(Br)s2)c1`, for which the inhibition amounted to 5.96%.

`COc1ccc(OC)c(CN2CCN(Cc3cc(=O)oc4cc(O)ccc34)CC2)c1`: the inhibition was active: 33.7%.

With `Cc1ccc(CCNC(=O)C2CCN(c3nnc(-n4cccc4CNc4ccc(C)cc4)s3)CC2)cc1`, the inhibition came out at 0.604%.

With `CCN(C(=O)Cn1c(=O)oc2cc(Cl)ccc21)c1cccc(C(F)(F)F)c1`, the inhibition was -20.2%.

With `Cc1ccc(-c2cnc(NCc3ccc(C(F)(F)F)cc3)n2C)cc1`, the inhibition is -27%.

Consider `COc1ccc(/C=C/C(=O)Nc2nc3n(n2)C(c2ccccc2)C=C(c2ccccc2)N3)cc1` (stereo unspecified), for which the inhibition is -7.07%.

In the case of `Cc1nc2scc(C)n2c(=O)c1S(=O)(=O)Nc1ccc(N2CCOCC2)cc1`, the inhibition was 15.4%.

Turning to `Cc1ccc(-n2ncc(C(=O)Nc3ccc4c(c3)OCO4)c2C2CCN(C(=O)OC(C)(C)C)CC2)cc1`, the inhibition amounted to 11%.
